We go through 22 molecules from publication PMC12136788.

The other results are listed elsewhere or left out.

The chains are these.
T1: UNK ZnF1-3 (human, UniProt Q9C0B0 31-174)
T1 sequence: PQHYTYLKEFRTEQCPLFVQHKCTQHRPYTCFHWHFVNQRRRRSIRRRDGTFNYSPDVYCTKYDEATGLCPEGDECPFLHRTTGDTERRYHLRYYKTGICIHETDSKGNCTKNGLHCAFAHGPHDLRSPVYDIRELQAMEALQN

B1: chr14:89305849:89305850:+_ENSG00000165533_ENST00000346301|hu_hu|FALSE|FALSE (ssRNA)
RNA: GGGAGUUCUACAGUCCGACGAUCAGCAUUUUCAUCCAGCAUCAUUUCUGCAAUUCCUUCCUGAUCUACAUCAAUUUCAUCUAUGUAUACCAUUUCUGUUAGCGCUCUUGCUUUUAAGAUCCAAGCUGCCUGGUCAUAAGGGGACAACAGAGGAUUGAGCAUCA
B2: chr10:79795341:79795342:+_ENSG00000138326_ENST00000360830|hu_hu|FALSE|FALSE (ssRNA)
RNA: GGGAGUUCUACAGUCCGACGAUCAUGAGUUCUGAAUCCAAAUACAAAGAUGACAUCCGGUGUGGUCUUGUACAUUUUGGCUAGUUUUUCCCGAAUUUCUGUCUUAGGCACUGUCGCCUUCCCGGGGUGAAGGACAUCAAUGACCAACAGAGGAUUGAGCAUCA
B3: 30352122_30389648_287_CDS_ENSMUSG00000029775_ENSMUST00000068259|mouse|control|control (ssRNA)
RNA: GGGAGUUCUACAGUCCGACGAUCGUGGCCUCUCAAGAACCUGUUAGGGAUCCUUAUGAUGGGACAGGACUGAAUGAAGCGCCUCCUAACUGGGUCCCACCGUAUUUUCUUCUUACCUGGCAGGUGCGGCCGUCCCGAGAGCUGCAACAGAGGAUUGAGCAUCA
B4: 42223328_42223448_1859_3pUTR_ENSMUSG00000037287_ENSMUST00000125995|mouse|control|control (ssRNA)
RNA: GGGAGUUCUACAGUCCGACGAUCUCAGAAUGAAAACCAGACCCAGGACCCCCAAAUGGAAAGGAGGAGGAGGAGGGGCAGGGAAGGAAGAGCCAGAGAAGGCCCUCCCUAGGAGGACCCCCAUCCCUCCCUAGGAGGACCCCACAACAGAGGAUUGAGCAUCA
B5: chr1:168318718:168318719:+_ENSMUSG00000026563_ENSMUST00000027846|mus_mus|motif|central (ssRNA)
RNA: GGGAGUUCUACAGUCCGACGAUCCUGGGGCUCCUUUGCCACGAACUGCUGAGCUCCAGAGAGGGGGUUCUGAGGCUGGAACCGGUGAUCAAAUUUUUGACGAACAGAAGAAAGCUUUUUCUUGCCCUUGGGUUUUCCAGGCUUCAACAGAGGAUUGAGCAUCA
B6: chr10:5827197:5827198:-_ENSG00000057608_ENST00000380191|perfect_dup|motif|central (ssRNA)
RNA: GGGAGUUCUACAGUCCGACGAUCAUAAAGGUAUGGGCUUUUGCCAUAUCUUGCCAAAGAUUCACUGUAAAGUUUAAUUCGGUUAAUGGUUUCAUAACACGGUUGAUCUAAGUAAUCAUCAGUUCUGUAAAGUGCAAGAGCAUGCAACAGAGGAUUGAGCAUCA
B7: chr2:60072280:60072281:+_ENSMUSG00000026977_ENSMUST00000102748|mus_mus|motif|central (ssRNA)
RNA: GGGAGUUCUACAGUCCGACGAUCUCUUCGUGAGAAAAAAGUAGAUGACAUGCUAGAAGCUAUCCGUGACAGCAAUCUCCGGGUUGUACGCCUACCUUCAUUGUCAGAAGAUUCUCGAUAUGGUCUCUGAGAUGAACCCCUUUCCAACAGAGGAUUGAGCAUCA
B8: 38144846_38144966_2325_CDS_ENSMUSG00000063455_ENSMUST00000169256|mouse|control|control (ssRNA)
RNA: GGGAGUUCUACAGUCCGACGAUCAGGUGUCAGAGUCGAGAAUGGAGAUGACUCGGUUAAAAUGGGUGUCAAAUGGAAAACAGUUGUUGGCAGUGAUGUGAGGUGAGUCCCAGCUGCGUAGAUGCCAAGAGAGGGCUCAGAGCUCAACAGAGGAUUGAGCAUCA
B9: chr6:112015657:112015658:-_ENSG00000010810_ENST00000368667|hu_mus|FALSE|FALSE (ssRNA)
RNA: GGGAGUUCUACAGUCCGACGAUCAGCAAUCUUGCAAAUUAGUCCAUUCCCCACUAGAAUGUUUGCUGAUCGCAGAUCUCUGUGGAUAUAAUUCAUGCGCUCGAUGUAAGCCAUUCCUGCAGCAACCUGUGCCGCCAUGUCCACCAACAGAGGAUUGAGCAUCA
B10: chr13:104551264:104551265:-_ENSMUSG00000032621_ENSMUST00000074616|mus_mus|motif|central (ssRNA)
RNA: GGGAGUUCUACAGUCCGACGAUCUCCAAGUGUUGUAAUAUUUGGGUCCAGCGCUGCUGCUGGGAUAGCUCCCAAACUGCGGAGUGAAACACCAAGACUACUCACUGCCGUCAGAGGACUGGAGGUUGGGAUGGGAAGCAACCCCAACAGAGGAUUGAGCAUCA
B11: chr4:148551591:148551592:-_ENSMUSG00000063077_ENSMUST00000060537|mus_hu|mus_mus_mus_hu_False|58_108 (ssRNA)
RNA: GGGAGUUCUACAGUCCGACGAUCACCUUACAAAAUUAAAUAUCCCUGUAAAUUAGACAAUAAGCAGCAGGCAACAAAGUCUAUGCUUUGGAAUAUGUGCCAGGAAAAGUCAUCUUGUUUUUAGAUCUCAAGAGACAGUUCACACAACAGAGGAUUGAGCAUCA
B12: chr7:141445308:141445309:+_ENSG00000106028_ENST00000265304|hu_hu|hu_hu_hu_mus_False|8_18 (ssRNA)
RNA: GGGAGUUCUACAGUCCGACGAUCUAUGAUUGUUGUUGCUUGCCGCCUCACAUUGUUUUUAUCCAUGUACUCGCCAUAGUCCACUUUCCCUUCCACAAAUAUACGAGCCCCCUUUUUCACAUAUUGAUAUGCCACGUCUCUGAGCAACAGAGGAUUGAGCAUCA
B13: chr14:78183846:78183847:+_ENSG00000119705_ENST00000557342|hu_hu|hu_hu_hu_mus_False|8_8 (ssRNA)
RNA: GGGAGUUCUACAGUCCGACGAUCUCUCAGAAAUCUUUCUUCAUCAGAUGUUUGAGCUCCGUGCAAAGCCUUUGCUCUUUGAGCUUGAACGUGGAUCUAUGGGAGGGAAAGCACUGUCAGAAAAGGUUGUAGUGCAUUUAAAGACAACAGAGGAUUGAGCAUCA
B14: chr13:97419678:97419679:-_ENSMUSG00000021670_ENSMUST00000022176|mus_mus|FALSE|FALSE (ssRNA)
RNA: GGGAGUUCUACAGUCCGACGAUCAGACACUUAAUUACAACAUAUACAGAUUGAUAGUUUACCAAAAAAUCUAGAGUUCAGCUAAAUAAGUUAAAAUGUCUCUAAAAGAAACUUGGCUUAGAGAAAUGGUCGUUUGUUUUUUGUCAACAGAGGAUUGAGCAUCA
B15: chr5:37680062:37680063:+_ENSMUSG00000029121_ENSMUST00000031004|mus_hu|mus_mus_mus_hu_False|38_78 (ssRNA)
RNA: GGGAGUUCUACAGUCCGACGAUCUUUGGGUGUAGCUGGUACCUCGUACACAGGACCAUCGUACAUGCCCCUGGAAACCCCUUGCAAUCCAAAAACCUUGCUUCUGAUUUUGACGCGCUGGUACAGGUGCUCCGGGAACGCCUUCAACAGAGGAUUGAGCAUCA
B16: chr7:65705844:65705845:+_ENSG00000169902_ENST00000304842|hu_mus|hu_hu_hu_mus_False|1_8 (ssRNA)
RNA: GGGAGUUCUACAGUCCGACGAUCAAACGGAUCUUUGUUACAUAAAUAAGGUGCCGGCUCCCCAUGUUUAACAAUGACCUCCAGAAGGAAGGCUUGCAUGGCAGAAUCUAGCACUUCAUCUGUGACACCAGCCUCAUCCAGGCGCAACAGAGGAUUGAGCAUCA
B17: chr19:8913615:8913616:-_ENSMUSG00000071658_ENSMUST00000096259|mus_hu|FALSE|FALSE (ssRNA)
RNA: GGGAGUUCUACAGUCCGACGAUCAGGGUACCAAAACCUUCUGCCUGAAAUGGGUGCCCCACCCAGUAGGGAGUUGCAGCUGAAAGUAUCUGAUGCAGAAGCAGUGACUAUACGAAAGGAGGCCCCUGGGGAGGGCCAGGCCAGCAACAGAGGAUUGAGCAUCA
B18: 156274125_156274366_1830_CDS_ENSG00000164114_ENST00000311277|human|control|control (ssRNA)
RNA: GGGAGUUCUACAGUCCGACGAUCUUUCUUUGCUCUUUCAUAUUCUCUCUCCUUUCUAUUUUUCUCUUUAAGAUAUUCCAUCUUUUUCUCUUUCCAUUUUUCAAAAGCUUGUAGUGCUUCUCCUUUUCUUGCAGCAUUUUCUUCCAACAGAGGAUUGAGCAUCA
B19: 77050538_77053148_775_3pUTR_ENSMUSG00000042272_ENSMUST00000102660|mouse|control|control (ssRNA)
RNA: GGGAGUUCUACAGUCCGACGAUCCCAGCAGCUCGUCAUCCAUAGGAGACCACGAGACCCCUCCGUCGGAGCCAUUAAAUCGACGCUGCUGUAAUUCAGAUAACAACUCAUGCCCUGUCUGAAGAACCGUCUCAGGAUCAACGGCAACAGAGGAUUGAGCAUCA
B20: chr14:102368134:102368135:+_ENSG00000078304_ENST00000445439|hu_hu|motif|central (ssRNA)
RNA: GGGAGUUCUACAGUCCGACGAUCGAGGGGUUCCAUGAUCUUCACAAAUUCUGAUGGUUCAAUGACAUCUAAAAUCUCUUCGGAUUCGUUUAAGAACAUUACUUCUUUUGGACUGUGAGUCUUUGGCCAGUAUUUGAGAAGUGCCAACAGAGGAUUGAGCAUCA
B21: 138067797_138068198_4638_CDS_ENSMUSG00000041642_ENSMUST00000075164|mouse|control|control (ssRNA)
RNA: GGGAGUUCUACAGUCCGACGAUCAAUGUGGCCAGUCAGUUUGCCAAUGGGCUGGAACCUGUUGAGCUCCCAGAUGCGGACAGCAUUGCCAGAGGCAACGUAUAGCAUGGAGCCUGAGGGGCUGAGGGCCAUCUGGUUGAUCUGCAACAGAGGAUUGAGCAUCA
B22: chr1:118502009:118502010:+_ENSG00000065183_ENST00000349139|hu_mus|motif|central (ssRNA)
RNA: GGGAGUUCUACAGUCCGACGAUCUGUUAAAAUCAUCCUUUUCCUGUUUUUUCGUUUUUUCUUCUUCUCUUCCAAGUGACGGGUAGCUUCUGCAAAAAACAUCACUUCACUCUUUGCUUCACACUCUCUCUUGAGAUAAUCGAGCAACAGAGGAUUGAGCAUCA

The test has as its target T1, UNK ZnF1-3. In words: nsRBNS (natural sequence RNA bind-n-seq); RBNS binding buffer (assumed for nsRBNS): 25 mM Tris pH 7.5, 150 mM KCl, 3 mM MgCl2, 0.01% Triton X-100, 500 ug/ml BSA, 20 U/ml SUPERase-In, 4 C; UNK is unkempt and MSI1 is Musashi-1; names of the RNAs are library labels; protein concentration not given here; high values mean tight binding.
With B1, the binding signal was determined as 1.02 enrichment R.
The same measure for B2: 0.989 enrichment R; for B3: 0.965 enrichment R.
As for B4, the binding signal amounted to 1.4 enrichment R.
The same measure for B5: 1.15 enrichment R; for B6: 0.588 enrichment R; for B7: 0.733 enrichment R.
For B8, the binding signal was 1.48 enrichment R.
B9 yielded a binding signal of 1.07 enrichment R.
As for B10, the binding signal turned out to be 1.31 enrichment R.
Next, B11: 1.2 enrichment R; B12: 0.65 enrichment R.
B13 yielded a binding signal of 1.3 enrichment R.
The same measure for B14: 1.38 enrichment R; for B15: 0.777 enrichment R.
In the case of B16, the binding signal stood at 0.635 enrichment R.
Next, B17: 1.5 enrichment R.
Next, B18: 0.19 enrichment R; B19: 0.996 enrichment R.
As to B20, the binding signal was found to be 0.763 enrichment R.
Next, B21: 0.836 enrichment R; B22: 0.531 enrichment R.
